# Data as given in the supplement of paper PMC8728848.
# The list shows a part of the results.
# B1: ConA (Canavalia ensiformis), P02866 (protein)
# chain: MAISKKSSLFLPIFTFITMFLMVVNKVSSSTHETNALHFMFNQFSKDQKDLILQGDATTGTDGNLELTRVSSNGSPQGSSVGRALFYAPVHIWESSAVVASFEATFTFLIKSPDSHPADGIAFFISNIDSSIPSGSTGRLLGLFPDANVIRNSTTIDFNAAYNADTIVAVELDTYPNTDIGDPSYPHIGIDIKSVRSKKTAKWNMQNGKVGTAHIIYNSVDKRLSAVVSYPNADSATVSYDVDLDNVLPEWVRVGLSASTGLYKETNTILSWSFTSKLKSNEIPDIATVV
# How the values were obtained:
# Test in all cases: glycan array binding signal (z-score within array); higher = stronger binding
# Conditions in all cases: glycan notation: IUPAC condensed, linker removed
# [1] = target: Neu5Ac(a2-8)Neu5Ac(a2-3)[Gal(b1-3)GalNAc(b1-4)]Gal(b1-4)Glc
# Method in brief: (§1)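 Glycan array data came from 3228 arrays in the Consortium for Functional Glycomics database, and only arrays with an available protein sequence were kept. Glycan names were put into IUPAC-condensed notation, and columns mapping to the same glycan were averaged. The binding signal is a within-array Z-score, averaged across arrays of one protein sequence run at different concentrations or buffers and across linkers. A negative Z-score can be read as non-binding.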
# [2] = target: Neu5Ac(a2-8)Neu5Ac(a2-3)[GalNAc(b1-4)]Gal(b1-4)Glc
# Method in brief: as §1
# [3] = target: Neu5Ac(a2-8)Neu5Ac(a2-8)Neu5Ac
# Method in brief: as §1
# [4] = target: Neu5Ac(a2-8)Neu5Ac(a2-8)Neu5Ac(a2-3)Gal(b1-4)Glc
# Method in brief: as §1
# [5] = target: Neu5Ac(a2-8)Neu5Ac(a2-8)Neu5Ac(a2-3)[GalNAc(b1-4)]Gal(b1-4)Glc
# Method in brief: as §1
# [6] = target: Neu5Ac(a2-8)Neu5Ac(a2-8)Neu5Ac(a2-8)Neu5Ac(a2-3)[GalNAc(b1-4)]Gal(b1-4)Glc
# Method in brief: as §1
# Neu5Ac(b1-6)GalNAc = target: Neu5Ac(b1-6)GalNAc
# Method in brief: as §1
# [7] = target: Neu5Ac(b2-6)Gal(b1-4)GlcNAc
# Method in brief: as §1
# Neu5Ac(b2-6)GalNAc = target: Neu5Ac(b2-6)GalNAc
# Method in brief: as §1
# [8] = target: Neu5Ac9Ac(a2-3)Gal(b1-3)GlcNAc
# Method in brief: as §1
# [9] = target: Neu5Ac9Ac(a2-3)Gal(b1-4)GlcNAc
# Method in brief: as §1
# [10] = target: Neu5Ac9Ac(a2-6)Gal(b1-4)GlcNAc
# Method in brief: as §1
# [11] = target: Neu5Gc(a2-3)Gal(b1-3)GlcNAc
# Method in brief: as §1
# [12] = target: Neu5Gc(a2-3)Gal(b1-3)[Fuc(a1-4)]GlcNAc
# Method in brief: as §1
# Neu5Gc(a2-3)Gal(b1-4)Glc = target: Neu5Gc(a2-3)Gal(b1-4)Glc
# Method in brief: as §1
# [13] = target: Neu5Gc(a2-3)Gal(b1-4)GlcNAc
# Method in brief: as §1
# [14] = target: Neu5Gc(a2-3)Gal(b1-4)[Fuc(a1-3)]GlcNAc
# Method in brief: as §1
# [15] = target: Neu5Gc(a2-6)Gal(b1-4)GlcNAc
# Method in brief: as §1
# Neu5Gc(a2-6)GalNAc = target: Neu5Gc(a2-6)GalNAc
# Method in brief: as §1
# [16] = target: Neu5Gc(b2-6)Gal(b1-4)GlcNAc
# Method in brief: as §1
binder,measurement,setting,value
B1,glycan array binding signal (z-score),[1],-0.226
same,glycan array binding signal (z-score),[2],-0.282
same,glycan array binding signal (z-score),[3],-0.26
same,glycan array binding signal (z-score),[4],-0.309
same,glycan array binding signal (z-score),[5],0.018
same,glycan array binding signal (z-score),[6],-0.223
same,glycan array binding signal (z-score),Neu5Ac(b1-6)GalNAc,-0.292
same,glycan array binding signal (z-score),[7],-0.328
same,glycan array binding signal (z-score),Neu5Ac(b2-6)GalNAc,-0.258
same,glycan array binding signal (z-score),[8],-0.303
same,glycan array binding signal (z-score),[9],-0.009
same,glycan array binding signal (z-score),[10],-0.243
same,glycan array binding signal (z-score),[11],-0.266
same,glycan array binding signal (z-score),[12],-0.226
same,glycan array binding signal (z-score),Neu5Gc(a2-3)Gal(b1-4)Glc,-0.227
same,glycan array binding signal (z-score),[13],-0.258
same,glycan array binding signal (z-score),[14],-0.102
same,glycan array binding signal (z-score),[15],-0.228
same,glycan array binding signal (z-score),Neu5Gc(a2-6)GalNAc,-0.28
same,glycan array binding signal (z-score),[16],-0.244
